The supplement of paper PMC3334620
In all, about 33,000 sequences were measured (“E-score (-0.5 to 0.5)”: median about -0.054, highest 2% from about 0.35 on). The list shows a part of the results.

These sequences were tested against T1, Stb5 (UniProt P38699) (assay: PBM E-score (8-mer binding enrichment) (E-score (-0.5 to 0.5)); higher = stronger / more preferred TF binding; most listed sequences are background and not binding sites). Conditions: protein concentration: 200 nM; construct: GST-full length.
T1 sequence: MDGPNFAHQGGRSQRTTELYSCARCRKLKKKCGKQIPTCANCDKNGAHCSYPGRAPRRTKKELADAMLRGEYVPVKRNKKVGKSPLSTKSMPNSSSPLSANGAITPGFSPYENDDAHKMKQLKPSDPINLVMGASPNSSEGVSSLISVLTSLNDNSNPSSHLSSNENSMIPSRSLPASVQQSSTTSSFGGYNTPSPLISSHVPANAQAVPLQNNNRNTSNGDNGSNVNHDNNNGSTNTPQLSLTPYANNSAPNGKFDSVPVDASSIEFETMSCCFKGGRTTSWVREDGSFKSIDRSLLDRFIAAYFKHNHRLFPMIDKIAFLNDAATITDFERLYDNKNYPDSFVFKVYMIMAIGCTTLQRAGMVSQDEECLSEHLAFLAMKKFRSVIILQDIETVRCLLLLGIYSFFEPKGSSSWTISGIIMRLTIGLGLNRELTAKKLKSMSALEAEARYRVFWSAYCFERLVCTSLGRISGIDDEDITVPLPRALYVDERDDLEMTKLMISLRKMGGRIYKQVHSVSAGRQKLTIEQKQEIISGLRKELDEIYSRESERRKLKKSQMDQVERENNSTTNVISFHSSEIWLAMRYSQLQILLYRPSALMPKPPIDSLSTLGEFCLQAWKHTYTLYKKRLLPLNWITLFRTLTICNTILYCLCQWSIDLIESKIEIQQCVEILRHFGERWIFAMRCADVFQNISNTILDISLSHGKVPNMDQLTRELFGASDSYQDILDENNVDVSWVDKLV
Procedure, shortened: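 Universal all-10-mer Agilent arrays, double-stranded by primer extension on fresh or once-stripped slides, were probed with about 100-200 nM GST-tagged yeast transcription factors made by PURExpress. Fluorescent anti-GST detected bound protein, and masliner normalised the scans. E-scores from the Universal PBM Analysis Suite were given to each ungapped eight-base word pooled with its reverse complement.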

Sequence	PBM E-score
CAACCATG	-0.0567
GTGGCTCA	-0.168
ATCTCCAG	0.0194
AAAGCACC	0.311
CGTATGAG	-0.0006
ATCTGTGA	-0.0742
CGCTTCCC	0.0549
TAGTAGCA	-0.132
AAAATCTG	-0.104
CCATGGGA	-0.145
AGCCCCAT	-0.192
CTTCCGTC	0.299
CATGAGAA	-0.121
CCTGGGTA	0.00168
CCATTCAC	-0.116
AAAACCCT	-0.074
CCGGGGCA	0.17
CCCATTAC	-0.0791
GGGCCGAC	0.355
GCTGCTAC	-0.0302
GATACTGA	-0.0741
CGTTTACA	-0.0275
CCATCTAG	-0.0948

Sequence	PBM E-score
CTTGCTAA	-0.203
ACTCGGCG	0.08
AGTGAAGG	-0.0931
ACCAAGAT	0.0698
ACCGTATG	0.0965
CCACCAAA	-0.117
CAGGTAAA	0.0729
CACACCGA	0.344
ACATAACT	0.106
GGTTGACA	-0.0684
GCTGAGCC	0.00669
AGAAAATG	-0.165
AGCTTCAG	-0.297
AAGAAAGG	-0.0583
CATGCGAG	7e-05
ATCGAAGC	-0.103
ACAGGGAT	-0.183
ACCAACCA	-0.0405
CAGGGACC	-0.251
CGTCGTTC	0.066
GAATGCGC	0.15
CGGTGTGA	0.441
CCTGGGGA	-0.268

Sequence	PBM E-score
ATGACTAA	-0.114
ACCGATGC	0.325
CAAGAGCG	-0.0654
GTAGACAC	0.111
AATGTGGA	-0.214
CATTCAGG	-0.182
ACAGGCAA	-0.178
CATAGGGC	-0.0131
GACGGGTA	-0.044
ATTGCCAA	-0.119
AGAGCGGC	0.272
ATATGATC	-0.0325
GCCAAAGA	-0.13
GTGAAGCA	-0.165
GTGGGGTA	-0.00964
GAGGTTGC	-0.0524
AGAACTCC	0.0555
TGTTCGAA	-0.0722
AACATGAA	-0.0586
ACTCGTTG	-0.151
GAAATCGA	0.00973
CCCTTCGA	-0.132
AGCTTCAA	-0.144

Sequence	PBM E-score
TAGTGTCA	-0.163
AGAATCCT	-0.233
AAGACAGC	0.0552
ATTCACCC	0.0273
ATTTTAAC	0.144
TCCCGGAA	0.234
GGAATTAC	0.258
CCGTAATA	0.188
CGAGGCAC	-0.0847
CTCGTTTC	-0.214
CGAGAGAA	-0.241
TACGTTGA	-0.17
CGCTCTCA	-0.0898
AATAGGAT	0.0764
GTTCGAAA	0.0207
AAGTTTTA	-0.121
ATAGGTTC	-0.00207
AACCCCCT	-0.247
TACAGTAA	-0.219
CTTATGAA	0.0638
CGTTATCA	0.042
ATGACGGG	0.257
ATTACATG	0.136

Sequence	PBM E-score
CATGGAAG	-0.0777
AAAGTAGC	-0.112
AAGCAATC	-0.152
ACTCTGTA	-0.104
AACGCCAT	-0.106
CCAACGCG	-0.0276
ATGACCAT	-0.0475
CTGCATGA	-0.304
AACGACGT	-0.0504
CACGAAGG	-0.0971
CCCCTAAC	-0.247
CCCGGCGA	0.272
CATCACAG	-0.0936
CTATCTTC	-0.151
GCAAACGA	-0.147
ACGCGAGA	-0.336
GAAGCGGA	0.282
AGGACTAT	-0.102
GAGCAAAC	-0.144
ACACCCGA	0.243
GGAGTACC	0.0138
ATGAAATC	-0.0913
AAGATTCC	-0.0837

Sequence	PBM E-score
GCTGAACC	-0.161
CGTGTATC	0.0402
CCCCCTAC	-0.135
CCAATGAA	-0.185
ATATAGTC	0.128
ACCACTGA	-0.202
GGAACCGA	0.0422
CATTGACA	-0.198
AGTATATG	-0.0748
CGCCCGGC	0.31
AGGGCGTG	-0.145
CCCTCGTA	-0.192
AGTTCTCC	-0.0814
ATCCATGG	0.0265
CTAAATCC	0.299
GCTTGTAA	0.0749
CGGGATTC	0.219
CTTTGGTC	-0.0406
AACGCTAA	-0.114
CACGTCGA	-0.191
AGCACTAA	-0.212
AGGTAGGC	-0.212
CATTGAGG	-0.164

Sequence	PBM E-score
CCTTGGTA	0.0875
CACAGCAC	-0.168
ACAAGTAC	0.0459
AATTTTCG	0.00251
AGGACAAG	-0.167
GGCTACAC	-0.0423
GGATCAAA	0.032
GACAGGTA	0.0126
AGGGAGAG	-0.358
GGATCGCC	-0.125
AAAGACGA	-0.0756
GAAGGGAC	0.105
ATGTTTCA	-0.152
CCGGGACC	0.278
AAGACCAT	-0.18
GAGATCAA	-0.112
CTCACAAG	-0.286
CGTATATA	-0.0338
CCTATAGA	-0.0772
CCCCGAAG	0.247
